We go through 93 compounds from PubChem BioAssay AID1508623 (National Center for Advancing Translational Sciences (NCATS), 2021).

Molecules are shown by their SMILES. About 450 (0.94%) of roughly 48,000 compounds were called active. Roughly 19% stayed inconclusive and do not appear here. Calls come from the whole dose curve; as a rule, active = well fitted inhibition curve with a large enough effect; inconclusive = small, poorly fitted or top-dose-only effect; inactive = no such curve, though single readings can be large or run the other way. The list shows a part of the results.

This experiment in a line: Primary qHTS for Identification of Small Molecule Inhibitors of Huntingtin Promoter Activity. Note: nearly all actives have a fitted effect of over 50% in size. The following applies: HEK293 HTT promoter firefly luciferase reporter (activity 0% = vehicle and -100% = no light), 24 h; series mostly up to 57.5 µM; activity change, negative = inhibition: at the top concentration. In outline: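 Luminescence was read after Dual-Glo reagent and a 10 min room-temperature incubation. Values were normalized to vehicle (0% activity) and zero RLU (-100% activity). Reporter HEK293 cells had been exposed to compounds (up to 57.5 uM final) for 24 h.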
On to `CCN(CC)S(=O)(=O)c1ccc2c(c1)N(CC(=O)N1CCN(c3ccc(F)cc3)CC1)C(=O)CO2`, for which the “activity change, negative = inhibition” value was inactive: -7.8%.
For the compound `Cc1ccc(-c2nc(CCNC(=O)C(=O)Nc3ccc(C)cc3C)cs2)cc1`, the “activity change, negative = inhibition” value was inactive: 6.7%.
The value for `CCOc1ccc(CCNC(=O)Cn2nc(-c3ccc(C)cc3)ccc2=O)cc1OCC` was inactive: -29.7%; that for `COc1cc(CN2CCN(S(=O)(=O)c3ccccc3)CC2)cc(OC)c1O` was inactive: 6.09%; that for `CCc1ccccc1NC(=O)C1=C(C)C(=O)OC12CCCCCC2` was inactive: -2.3%.
For `COc1cc(NC(=O)CSc2ncc(S(=O)(=O)c3ccc(Br)cc3)c(=O)[nH]2)cc(OC)c1`, the “activity change, negative = inhibition” value was inactive: -1.27%.
Consider `Cc1c2cnn(CC(=O)NCCc3ccccc3)c(=O)c2c(C)n1Cc1ccccc1`, for which the “activity change, negative = inhibition” value was inactive: 1.78%.
With `Cc1cccc(NC(=O)C(=O)NCC(c2ccc3c(c2)OCO3)N2CCN(C)CC2)c1C` (stereo not drawn) the figure was inactive: -11.5%; with `COc1ccc(CNC(=O)c2cc3c(=O)oc4ccc(C)cc4c3s2)c(OC)c1`, inactive: -6.39%.
With `COc1ccc(OC)c(NC(=O)c2cccn2-c2nnc(N3CCCCC3)s2)c1`, the “activity change, negative = inhibition” value was inactive: -3.5%.
The value for `CC[C@]1(O)C[C@H]2CN(CCc3c([nH]c4ccccc34)[C@@](C(=O)OC)(c3cc4c(cc3OC)N(C=O)[C@H]3[C@@](O)(C(=O)OC)[C@H](OC(C)=O)[C@]5(CC)C=CCN6CC[C@]43[C@@H]65)C2)C1` was inactive: -25.9%; that for `CCN(CC)S(=O)(=O)c1ccc2oc(C(=O)N(C)Cc3ccccc3)c(C)c2c1` was inactive: -28.7%.
Take `COc1ccc(Cn2c(=O)c3oc4ccccc4c3n(Cc3ccc(F)cc3)c2=O)cc1`: the “activity change, negative = inhibition” value is inactive: -3.8%.
The value for `COc1ccc(CNC(=O)c2ccc(NC(=O)N3CCCCc4ccccc43)cc2)cc1` was inactive: -27.9%.
The value for `Cn1ccc2c(OCC(=O)Nc3cc(C(F)(F)F)ccc3Cl)cccc2c1=O` was inactive: 0%; that for `CCOc1ccccc1NC(=O)CCn1nc(C)c(S(=O)(=O)N2CCCCC2)c1C` was inactive: -27.7%.
For `COc1ccc(C2C=C(c3ccccc3)Nc3nc(NC(=O)/C=C/c4ccccc4)nn32)cc1` (stereo not drawn), the “activity change, negative = inhibition” value was inactive: -20.2%.
The value for `CCN(CC)S(=O)(=O)c1ccc2c(c1)c(=O)c(C(=O)N1CCN(c3ccc(F)cc3)CC1)cn2C` was inactive: -9.74%; that for `O=C(Cn1ncc2c3ccccc3n(Cc3cccc(Cl)c3)c2c1=O)NC1CCCCCC1` was inactive: -6.61%.
With `CCc1ccc(NC(=O)CSC2=Nc3ccccc3C3=NC(CC(=O)NCc4ccccc4)C(=O)N23)cc1` (stereo not drawn), the “activity change, negative = inhibition” value was inactive: -20%.
On to `COC(=O)CCN(c1ccccc1)S(=O)(=O)c1cc(-c2cc(C)no2)ccc1OC`, for which the “activity change, negative = inhibition” value was inactive: 5.69%.
The value for `CCN1CCSc2ccc(C(=O)NCc3ccc(OC)cc3)cc21` was inactive: -9.33%.
Take `O=C1CCSC2(C(=O)N(Cc3ccc(F)cc3)c3ccccc32)N1c1ccc(F)c(F)c1` (stereo not drawn): the “activity change, negative = inhibition” value was inactive: -26.2%.
With `CCNC(=O)CC1C(=O)N(c2cccc(OC)c2)C(=O)N1Cc1ccc(OC)c(OC)c1` (stereo not drawn) the figure was inactive: -11.3%; with `Cc1nc2ncnn2c(C)c1CCC(=O)NCc1ccccc1Cl`, inactive: -3.77%; with `CCOc1ccccc1N(CC(=O)N1CCc2ccccc2C1)S(=O)(=O)c1ccccc1`, inactive: -10.9%.
Regarding `CCOCc1ccccc1Nc1ncnc2onc(-c3ccc(Cl)cc3)c12`, the “activity change, negative = inhibition” value was inactive: -17.6%.
The value for `CCC(Sc1nncn2c1cc1oc(C)cc12)C(=O)Nc1ccc(F)cc1` (stereo not drawn) was inactive: -1.01%; that for `CCc1cccc(NC(=O)C(c2ccccc2)N2Cc3ccccc3C2=O)c1` (stereo not drawn) was inactive: -32.1%.
As to `COCCn1c(=N)c(C(=O)NC(C)c2ccccc2)cc2c(=O)n3cc(C)ccc3nc21` (stereo not drawn), the “activity change, negative = inhibition” value was inactive: -0.735%.
`COc1ccccc1OCC(O)CO` (stereo not drawn): the “activity change, negative = inhibition” value is inactive: -2.52%.
For the compound `CCc1ccccc1NC(=O)CSc1nnc2ccc3ccccc3n12`, the “activity change, negative = inhibition” value was inactive: -11%.
The value for `COC(=O)c1cc2oc3ccccc3c2n1Cc1nc(-c2ccccc2C)oc1C` was inactive: -23.2%; that for `O=C(CSCc1cc(=O)c2cc(F)ccc2[nH]1)Nc1ccccc1Cl` was inactive: -18.6%.
The value for `CCC(C)NC(=O)CCc1c(C)nc2nc(-c3cc(OC)cc(OC)c3)nn2c1C` (stereo not drawn) was inactive: -8.93%; that for `Cc1ccc(NC(=O)[C@@H](c2ccccc2)N2Cc3ccccc3C2=O)cc1` was inactive: -4.21%; that for `COc1ccc(OC)c(CCNc2nc3ccccc3c3nc(-c4cccnc4)nn23)c1` was inactive: -10.8%.
Regarding `Brc1ccc(-n2nc(-c3ccccc3)c3cnc4cc5c(cc4c32)OCO5)cc1`, the “activity change, negative = inhibition” value is inactive: -11.3%.
With `Cc1ccc2[nH]c(CSc3nnc(NC(=O)c4ccc(Cl)cc4)s3)cc(=O)c2c1` the figure was inactive: 16.5%; with `CCCN(CCC)C(=O)c1c2c(nc3ccccc13)C(=O)N(C1CCCCC1)C2`, inactive: -14.9%.
The value for `Cc1cc(=O)[nH]c(=S)[nH]1` was inactive: 0.717%; that for `Cc1cc(S(=O)(=O)C(CNC(=O)COc2ccc(Cl)cc2)c2cccs2)ccc1F` (stereo not drawn) was inactive: -19.2%; that for `Cc1ccc(CCNC(=O)C2CCN(Cc3nc(-c4ccccc4C)oc3C)CC2)cc1` was inactive: -25%.
For the compound `CCCN(C(=O)c1coc(=O)c2ccccc12)c1ccccc1C`, the “activity change, negative = inhibition” value was inactive: -23.2%.
The value for `Cc1ccc(N2C(=O)CSC23C(=O)N(CC(=O)Nc2ccc(C(C)C)cc2)c2ccccc23)cc1C` (stereo not drawn) was inactive: -28.5%.
The value for `COc1ccc(-n2nc(C(=O)Nc3cccc(C)n3)c3c4ccccc4n(C)c3c2=O)cc1Cl` was inactive: -21.4%; that for `CCOc1ccc(CCNC(=O)CCc2cn(Cc3ccc(F)cc3)c3ccccc23)cc1` was inactive: -23.7%.
Regarding `Cc1coc2cc3oc(=O)c(CC(=O)NCCc4ccccc4)c(C)c3cc12`, the “activity change, negative = inhibition” value is inactive: -1.45%.
Regarding `CCOc1ccc(NC(=O)Cn2cc(C(=O)c3ccco3)c3ccccc32)cc1`, the “activity change, negative = inhibition” value is inactive: -1.4%.
With `CCn1c(=O)cc(OCC(=O)Nc2cc(Cl)c(OC)cc2OC)c2ccccc21`, the “activity change, negative = inhibition” value is inactive: -5.36%.
For the compound `COc1cc(NC(=O)c2cc(S(=O)(=O)N3CCc4ccccc43)cn2C)cc(OC)c1OC`, the “activity change, negative = inhibition” value is inactive: -28.6%.
With `Cc1ccc(C)c(CN2C(=O)c3ccccc3S(=O)(=O)c3ccc(C(=O)N4CCCCC4)cc32)c1` the figure was inactive: -14.4%; with `CC(=O)[C@H]1CC[C@H]2[C@@H]3C=CC4=CC(=O)CC[C@@]4(C)[C@@H]3CC[C@]12C`, inactive: -19.4%.
Consider `COc1ccc(OC)c(NC(=O)c2cnn(-c3ccc(C)cc3)c2C2CCNCC2)c1`, for which the “activity change, negative = inhibition” value was inactive: -1.06%.
With `CCc1ccccc1N(C)C(=O)c1cc2c(=O)oc3ccccc3c2s1` the figure was inactive: -6.84%; with `CCCCCOC(=O)Nc1nc(=O)n([C@@H]2O[C@H](C)[C@@H](O)C2O)cc1F` (stereo partly drawn), inactive: -2.64%; with `O=C(COc1ccccc1[N+](=O)[O-])N(Cc1ccco1)c1ccccn1`, inactive: 1.76%.
As for `O=C(C1CCC1)N1CCc2cc(S(=O)(=O)NCc3ccc(F)cc3)ccc21`, the “activity change, negative = inhibition” value was inactive: -27.6%.
The value for `COc1ccc(C)cc1NC(=O)N1CCCn2nc(C)cc21` was inactive: -15.4%; that for `CCOc1ccccc1NC(=O)Cn1c(=O)n(-c2cccc(C)c2)c(=O)c2c1c1cc(OC)ccc1n2C` was inactive: -6.11%; that for `O=C(Cn1c(=O)n(CC2CCC(C(=O)NCCc3ccccc3)CC2)c(=O)c2ccccc21)Nc1cccc(F)c1` (stereo not drawn) was inactive: -7.12%.
With `COc1ccc(C2C=C(c3ccccc3)Nc3nc(NS(=O)(=O)c4ccc(Cl)cc4)nn32)cc1` (stereo not drawn) the figure was inactive: -11.6%.
For `COc1ccc(C(=O)Cn2c(=O)c(-c3cc(C)ccc3NC(C)=O)nc3ccccc32)cc1`, the “activity change, negative = inhibition” value was inactive: -20%.
In the case of `CC(=O)c1cc2c(cc1N/C(=N/S(=O)(=O)c1ccc(Br)cc1)c1ccccc1)OCO2`, the “activity change, negative = inhibition” value is inactive: -26.2%.
On to `O=C(COc1ccccc1)NC1CC(=O)N(c2ccc3c(c2)OCCO3)C1` (stereo not drawn), for which the “activity change, negative = inhibition” value was inactive: -0.141%.
Take `COC(=O)c1ccccc1NC(=O)N1CCc2c(sc3c2CCCC3)C1c1ccc(F)cc1` (stereo not drawn): the “activity change, negative = inhibition” value was inactive: -5.68%.
With `Cc1ccccc1Cn1c(CN2CCCC(C)C2)nc2c1c(=O)n(C)c(=O)n2C` (stereo not drawn) the figure was inactive: -5.34%.
The value for `Cc1ccc(C)c(N2CCN(C(=O)c3noc4c3CCCCC4)CC2)c1` was inactive: -27.6%; that for `Cc1cccn2c(=O)c(/C=C(\C#N)c3nc4ccccc4[nH]3)c(Oc3ccc(C(C)(C)C)cc3)nc12` was inactive: -4.29% [at 11.5 µM]; that for `O=C(CCc1nc(-c2cccs2)no1)Nc1cccc([N+](=O)[O-])c1` was inactive: -5.19%.
With `Cc1ccc(C)c(N2CCN(C(c3ccccc3)c3nnc(-c4ccccc4F)o3)CC2)c1` (stereo not drawn) the figure was inactive: -15.8%; with `Cc1ccc(OCC(=O)OCc2cc(=O)n3nc(-c4cccs4)sc3n2)cc1C`, inactive: 3.51%.
Consider `Cc1ccc(-c2nc3n(n2)C(=O)CC(c2ccc(Cl)cc2)S3)cc1` (stereo not drawn), for which the “activity change, negative = inhibition” value is inactive: 4.28%.
`Cc1cc(C)c(NC(=O)Cn2c(=O)n(-c3ccc(CC(=O)NCC4CCCO4)cc3)c(=O)c3ccccc32)c(C)c1` (stereo not drawn): the “activity change, negative = inhibition” value was inactive: -2.44%.
With `O=C(NCc1ccc(F)cc1)c1cc2n(n1)CCCN(Cc1ccc(F)cc1)C2=O` the figure was inactive: 31.9%.
The value for `Cc1ccc(C(=O)Nc2sc3c(c2C(=O)NCc2ccco2)CCC(C(C)(C)C)C3)cc1` (stereo not drawn) was inactive: -1.09%; that for `CCOc1ccc(Sc2cc(C(=O)NC(C)c3ccccc3)c3ccccc3n2)cc1` (stereo not drawn) was inactive: -27.6%.
For `Cc1ccsc1CN(C(=O)COc1ccc(Br)cc1)C1CCS(=O)(=O)C1` (stereo not drawn), the “activity change, negative = inhibition” value is inactive: -29.2%.
As to `Cc1ccc(OCC(=O)Nc2cc3nn(-c4ccccc4)nc3cc2C)cc1`, the “activity change, negative = inhibition” value was inactive: 43.9%.
In the case of `Cc1c[nH]c(C=C2C(=O)Nc3ccccc32)c1CCC(=O)O`, the “activity change, negative = inhibition” value was inactive: 3.58%.
For `Cc1ccc(C(=O)Nc2ccc(NC(=O)c3cccs3)cc2)cc1C`, the “activity change, negative = inhibition” value is inactive: -6.33%.
For the compound `Cc1cc(Cl)ccc1NC(=O)C(=O)NCc1ccco1`, the activity change, negative = inhibition was inactive: -17.2% [at 11.5 µM].
The value for `COc1ccc(NC(=O)Cn2c(SCc3cc(C)ccc3C)nc3ccncc32)c(OC)c1OC` was inactive: -15.6%.
Take `COc1ccc2c(CNCc3cccs3)c(C(=O)O)n(Cc3ccccc3)c2c1`: the “activity change, negative = inhibition” value is inactive: -12.2%.
The value for `O=C(Cn1c(=O)c2cccn2c2ccccc21)NCCc1ccccc1` was inactive: -3.67%; that for `CCOc1ccccc1NC(=O)Cn1cc(C(=O)c2cccc(OC)c2)c(=O)c2ccc(C)nc21` was inactive: -17.6%; that for `COc1cc(NC(=O)CN(c2ccc(C)cc2)S(=O)(=O)c2cccc3nonc23)cc(OC)c1` was inactive: -13.6%.
The value for `Cc1ccc2nc(NC(=O)COc3ccc(F)cc3)sc2c1` was inactive: 9.56%; that for `CCOc1ccccc1C(=O)Nc1ccc(S(=O)(=O)Nc2nc(C)cc(C)n2)cc1` was inactive: 2.44%.
The value for `O=C(CSc1nnc(CNC(=O)c2cccc(F)c2)n1-c1ccccc1)Nc1ccccc1F` was inactive: -14.4%; that for `Cc1ccc(NC(=O)Cn2cnc3sc(C(=O)O)c(C)c3c2=O)cc1Cl` was inactive: -4.02%.
`CCN1CCN(c2nc3c(S(=O)(=O)c4ccc(Br)cc4)nnn3c3ccsc23)CC1`: the “activity change, negative = inhibition” value was inactive: -2.82%.
Consider `CN[C@@H](C)C(=O)N[C@H]1CN(C(=O)CC(C)C)CC[C@H]2CC[C@@H](C(=O)NC(c3ccccc3)c3ccccc3)N2C1=O`, for which the “activity change, negative = inhibition” value is inactive: -18.5%.
